Measured values published in the supplement of paper PMC8728848.
Some of the results follow.

How the values were obtained:
Assay in all cases: glycan array binding signal (z-score within array); higher = stronger binding
Conditions in all cases: glycan notation: IUPAC condensed, linker removed
[1] = target: Gal(b1-3)GlcNAc(b1-6)GalNAc
In short: (§1)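 The Consortium for Functional Glycomics database supplied 3228 glycan arrays, of which those lacking an available protein sequence were dropped. The binding signal, a within-array Z-score, was averaged across arrays of the same protein sequence and across linkers. Negative scores can be read as non-binding.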

[2] = target: Gal(b1-3)GlcNAc(b1-6)[Gal(b1-3)]GalNAc
In short: as §1

Gal(b1-3)GlcNAc6S = target: Gal(b1-3)GlcNAc6S
In short: as §1

[3] = target: Gal(b1-3)[Fuc(a1-4)]GlcNAc
In short: as §1

[4] = target: Gal(b1-3)[Fuc(a1-4)]GlcNAc(b1-2)Man
In short: as §1

[5] = target: Gal(b1-3)[Fuc(a1-4)]GlcNAc(b1-2)Man(a1-3)[Gal(b1-3)[Fuc(a1-4)]GlcNAc(b1-2)Man(a1-6)]Man(b1-4)GlcNAc(b1-4)[Fuc(a1-6)]GlcNAc
In short: as §1

[6] = target: Gal(b1-3)[Fuc(a1-4)]GlcNAc(b1-3)Gal(b1-3)[Fuc(a1-4)]GlcNAc
In short: as §1

[7] = target: Gal(b1-3)[Fuc(a1-4)]GlcNAc(b1-3)Gal(b1-4)[Fuc(a1-3)]GlcNAc
In short: as §1

[8] = target: Gal(b1-3)[Fuc(a1-4)]GlcNAc(b1-6)GalNAc
In short: as §1

[9] = target: Gal(b1-3)[GlcNAc(b1-6)]GalNAc
In short: as §1

[10] = target: Gal(b1-3)[Neu5Ac(a2-6)]GalNAc
In short: as §1

[11] = target: Gal(b1-3)[Neu5Ac(a2-6)]GlcNAc(b1-4)Gal(b1-4)Glc
In short: as §1

[12] = target: Gal(b1-3)[Neu5Ac(b2-6)]GalNAc
In short: as §1

Gal(b1-4)Gal = target: Gal(b1-4)Gal
In short: as §1

[13] = target: Gal(b1-4)GalNAc(a1-3)[Fuc(a1-2)]Gal(b1-4)GlcNAc
In short: as §1

[14] = target: Gal(b1-4)GalNAc(b1-3)[Fuc(a1-2)]Gal(b1-4)GlcNAc
In short: as §1

Gal(b1-4)Glc = target: Gal(b1-4)Glc
In short: as §1

Gal(b1-4)Glc6S = target: Gal(b1-4)Glc6S
In short: as §1

Gal(b1-4)GlcNAc = target: Gal(b1-4)GlcNAc
In short: as §1

[15] = target: Gal(b1-4)GlcNAc(a1-6)Gal(b1-4)GlcNAc
In short: as §1

Gal(b1-4)GlcNAc(b1-2)Man = target: Gal(b1-4)GlcNAc(b1-2)Man
In short: as §1

[16] = target: Gal(b1-4)GlcNAc(b1-2)Man(a1-3)Man(b1-4)GlcNAc(b1-4)GlcNAc
In short: as §1

[17] = target: Gal(b1-4)GlcNAc(b1-2)Man(a1-3)[Gal(b1-4)GlcNAc(b1-2)Man(a1-6)]Man(b1-4)GlcNAc(b1-4)GlcNAc
In short: as §1

[18] = target: Gal(b1-4)GlcNAc(b1-2)Man(a1-3)[Gal(b1-4)GlcNAc(b1-2)Man(a1-6)]Man(b1-4)GlcNAc(b1-4)[Fuc(a1-6)]GlcNAc
In short: as §1

[19] = target: Gal(b1-4)GlcNAc(b1-2)Man(a1-3)[Gal(b1-4)GlcNAc(b1-2)Man(a1-6)][Gal(b1-4)GlcNAc(b1-4)]Man(b1-4)GlcNAc(b1-4)[Fuc(a1-6)]GlcNAc
In short: as §1

[20] = target: Gal(b1-4)GlcNAc(b1-2)Man(a1-3)[Gal(b1-4)GlcNAc(b1-2)Man(a1-6)][GlcNAc(b1-4)]Man(b1-4)GlcNAc(b1-4)[Fuc(a1-6)]GlcNAc
In short: as §1

[21] = target: Gal(b1-4)GlcNAc(b1-2)Man(a1-3)[GlcNAc(b1-2)Man(a1-6)]Man(b1-4)GlcNAc(b1-4)GlcNAc
In short: as §1

[22] = target: Gal(b1-4)GlcNAc(b1-2)Man(a1-3)[GlcNAc(b1-4)][Gal(b1-4)GlcNAc(b1-2)Man(a1-6)]Man(b1-4)GlcNAc(b1-4)GlcNAc
In short: as §1

[23] = target: Gal(b1-4)GlcNAc(b1-2)Man(a1-3)[Man(a1-6)]Man(b1-4)GlcNAc(b1-4)GlcNAc
In short: as §1

[24] = target: Gal(b1-4)GlcNAc(b1-2)Man(a1-6)Man(b1-4)GlcNAc(b1-4)GlcNAc
In short: as §1

[25] = target: Gal(b1-4)GlcNAc(b1-2)Man(a1-6)[GlcNAc(b1-2)Man(a1-3)]Man(b1-4)GlcNAc(b1-4)GlcNAc
In short: as §1

[26] = target: Gal(b1-4)GlcNAc(b1-2)Man(a1-6)[Man(a1-3)]Man(b1-4)GlcNAc(b1-4)GlcNAc
In short: as §1

[27] = target: Gal(b1-4)GlcNAc(b1-2)[Gal(b1-4)GlcNAc(b1-4)]Man(a1-3)[Gal(b1-4)GlcNAc(b1-2)Man(a1-6)]Man(b1-4)GlcNAc(b1-4)GlcNAc
In short: as §1

[28] = target: Gal(b1-4)GlcNAc(b1-2)[Gal(b1-4)GlcNAc(b1-4)]Man(a1-3)[Gal(b1-4)GlcNAc(b1-2)[Gal(b1-4)GlcNAc(b1-6)]Man(a1-6)]Man(b1-4)GlcNAc(b1-4)GlcNAc
In short: as §1

[29] = target: Gal(b1-4)GlcNAc(b1-2)[Gal(b1-4)GlcNAc(b1-4)]Man(a1-3)[GlcNAc(b1-4)][Gal(b1-4)GlcNAc(b1-2)Man(a1-6)]Man(b1-4)GlcNAc(b1-4)GlcNAc
In short: as §1

[30] = target: Gal(b1-4)GlcNAc(b1-2)[Gal(b1-4)GlcNAc(b1-4)]Man(a1-3)[GlcNAc(b1-4)][Gal(b1-4)GlcNAc(b1-2)[Gal(b1-4)GlcNAc(b1-6)]Man(a1-6)]Man(b1-4)GlcNAc(b1-4)GlcNAc
In short: as §1

[31] = target: Gal(b1-4)GlcNAc(b1-2)[Gal(b1-4)GlcNAc(b1-6)]Man(a1-6)[Gal(b1-4)GlcNAc(b1-2)Man(a1-3)]Man(b1-4)GlcNAc(b1-4)GlcNAc
In short: as §1

B1: PkBDPgamma (Plasmodium knowlesi) (protein)
chain: SAINQIFLQNNVMDKCNDKRKRGERDWDCPTEKDVCIPDRRYQLCMMEITNLVDTDTHFHSDIIFRKSYSRRRLIYDVGGRGDLLLKKYNNVYSEDLCKDIKWSLQDFGDIIMGTDMEGIGYSLVVQNNLRSIFGTGTSAELDRKKWWNDHKKDIWKAMILSVKEKNRYSAWNCKEDVQIKVEPQIYRWIREWGRDYMSEFREQRRKLNEKCEDKLYYSTMLICTLPPCNNACKSYDEWITGKKKQWDVLSTKFSSVKKAQKIETENIARAYDILKQELNGFNEVTFENEINKRDKLYNYFCVCIVQEARKNTQENVKNVGSGVESKAPSSNPINEAVKSSSGEGKVQEDSAHRSVNEGEGKSSTNEADPGSQPGAAASGGGSGGGTGGGVDLAPQMLRELQETNAALQDVRELLRQQVKEITFLKNTVMECDACGGPLDRNLPPLAPLGPTGGWSHPQFEK
[1]
  glycan array binding signal (z-score): 0.183
[2]
  glycan array binding signal (z-score): -0.036
Gal(b1-3)GlcNAc6S
  glycan array binding signal (z-score): 0.211
[3]
  glycan array binding signal (z-score): 0.044
[4]
  glycan array binding signal (z-score): -0.493
[5]
  glycan array binding signal (z-score): 0.346
[6]
  glycan array binding signal (z-score): -0.432
[7]
  glycan array binding signal (z-score): -0.505
[8]
  glycan array binding signal (z-score): -0.142
[9]
  glycan array binding signal (z-score): -0.121
[10]
  glycan array binding signal (z-score): -0.396
[11]
  glycan array binding signal (z-score): -0.239
[12]
  glycan array binding signal (z-score): 0.038
Gal(b1-4)Gal
  glycan array binding signal (z-score): 0.563
[13]
  glycan array binding signal (z-score): -0.108
[14]
  glycan array binding signal (z-score): -0.404
Gal(b1-4)Glc
  glycan array binding signal (z-score): 0.047
Gal(b1-4)Glc6S
  glycan array binding signal (z-score): -0.16
Gal(b1-4)GlcNAc
  glycan array binding signal (z-score): -0.039
[15]
  glycan array binding signal (z-score): -0.526
Gal(b1-4)GlcNAc(b1-2)Man
  glycan array binding signal (z-score): 0.03
[16]
  glycan array binding signal (z-score): 0.159
[17]
  glycan array binding signal (z-score): -0.123
[18]
  glycan array binding signal (z-score): -0.246
[19]
  glycan array binding signal (z-score): -0.328
[20]
  glycan array binding signal (z-score): -0.641
[21]
  glycan array binding signal (z-score): -0.323
[22]
  glycan array binding signal (z-score): -0.495
[23]
  glycan array binding signal (z-score): -0.159
[24]
  glycan array binding signal (z-score): -0.218
[25]
  glycan array binding signal (z-score): 0.009
[26]
  glycan array binding signal (z-score): -0.572
[27]
  glycan array binding signal (z-score): -0.323
[28]
  glycan array binding signal (z-score): 0.246
[29]
  glycan array binding signal (z-score): -0.135
[30]
  glycan array binding signal (z-score): -0.162
[31]
  glycan array binding signal (z-score): -0.484
